Results are given in words; binding and its absence hold for the method and conditions named. Binding seen in cells or lysates may run through a third protein. Some results given as binding are weak or reduced against the parent protein; the word gives no strength.
Assays:
[1] = target: Human cytomegalovirus immediate early 1 (IE1) protein, strain AD169, expressed from the infecting virus (human cytomegalovirus (HCMV) strain AD169) (UniProt P13202); assay: co-IP
[2] = target: Δ345–491 C-terminal truncation mutant of IE1 (FLAG-tagged) (human cytomegalovirus (HCMV) strain AD169) (UniProt P13202); assay: co-IP; MRC5 cells nucleofected with full length IE1 (FL), Δ345–491 IE1 (ΔAD) or empty vector, 48 hours later 100 U/mL IFNγ for 30 minutes; total lysate (25 mM Tris, 150 mM NaCl, 1% NP40) reacted with anti-IE1 antibody Mab810 at 4 °C overnight, protein A beads; blots for STAT1, IE1 and STAT2
[3] = target: Full length FLAG-tagged IE1 of HCMV AD169 (human cytomegalovirus (HCMV) strain AD169) (UniProt P13202); assay: as above
[4] = target: Full length FLAG-tagged IE1 of HCMV AD169 (human cytomegalovirus (HCMV) strain AD169) (UniProt P13202); assay: co-IP

Sequences of proteins named here, by UniProt entry; tags and fusion partners are left off.
UniProt P42224: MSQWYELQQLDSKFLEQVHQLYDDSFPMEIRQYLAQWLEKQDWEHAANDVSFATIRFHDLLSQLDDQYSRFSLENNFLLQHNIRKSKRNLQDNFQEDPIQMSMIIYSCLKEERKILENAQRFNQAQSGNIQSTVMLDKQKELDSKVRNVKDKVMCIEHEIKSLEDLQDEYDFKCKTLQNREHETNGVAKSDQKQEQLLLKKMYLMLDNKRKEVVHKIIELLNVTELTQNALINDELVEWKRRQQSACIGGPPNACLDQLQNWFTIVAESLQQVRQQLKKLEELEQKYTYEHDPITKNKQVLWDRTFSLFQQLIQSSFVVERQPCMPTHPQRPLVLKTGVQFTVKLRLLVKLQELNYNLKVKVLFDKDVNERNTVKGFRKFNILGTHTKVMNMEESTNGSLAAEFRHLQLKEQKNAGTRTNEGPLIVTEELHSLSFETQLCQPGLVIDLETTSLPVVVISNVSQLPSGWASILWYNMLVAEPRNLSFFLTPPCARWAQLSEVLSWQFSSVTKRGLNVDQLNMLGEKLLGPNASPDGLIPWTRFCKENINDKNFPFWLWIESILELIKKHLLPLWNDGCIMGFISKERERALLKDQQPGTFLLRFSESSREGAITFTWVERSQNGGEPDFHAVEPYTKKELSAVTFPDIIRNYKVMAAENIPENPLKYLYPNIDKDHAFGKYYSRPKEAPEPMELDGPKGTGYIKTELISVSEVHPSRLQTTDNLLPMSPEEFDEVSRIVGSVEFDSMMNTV
UniProt P52630: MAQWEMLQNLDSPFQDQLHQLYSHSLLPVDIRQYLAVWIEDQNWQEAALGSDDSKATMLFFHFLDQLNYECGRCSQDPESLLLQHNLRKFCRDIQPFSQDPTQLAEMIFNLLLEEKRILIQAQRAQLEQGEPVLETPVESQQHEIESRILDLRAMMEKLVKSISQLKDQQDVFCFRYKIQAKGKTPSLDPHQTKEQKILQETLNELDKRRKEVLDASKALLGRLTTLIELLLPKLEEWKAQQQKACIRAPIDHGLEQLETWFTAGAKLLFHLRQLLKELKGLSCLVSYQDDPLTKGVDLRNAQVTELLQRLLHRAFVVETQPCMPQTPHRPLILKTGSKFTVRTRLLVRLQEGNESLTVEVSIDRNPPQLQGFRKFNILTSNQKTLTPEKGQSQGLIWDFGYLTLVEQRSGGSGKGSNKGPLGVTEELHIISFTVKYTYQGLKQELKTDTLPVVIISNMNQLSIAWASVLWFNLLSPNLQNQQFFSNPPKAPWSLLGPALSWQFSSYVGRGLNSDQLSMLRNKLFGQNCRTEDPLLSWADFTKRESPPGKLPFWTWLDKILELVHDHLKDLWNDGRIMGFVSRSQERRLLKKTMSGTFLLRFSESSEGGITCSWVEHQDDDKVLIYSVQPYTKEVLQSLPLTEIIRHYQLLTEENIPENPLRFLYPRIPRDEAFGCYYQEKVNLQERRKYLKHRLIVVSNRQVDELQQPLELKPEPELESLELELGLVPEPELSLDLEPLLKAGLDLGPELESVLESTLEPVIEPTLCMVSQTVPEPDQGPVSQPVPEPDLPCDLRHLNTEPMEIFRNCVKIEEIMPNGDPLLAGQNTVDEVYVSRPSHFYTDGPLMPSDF

Substance | binding [1] | binding [2] | binding [3] | binding [4]
Signal transducer and activator of transcription 1 (STAT1) (from UniProt P42224 1-750) | no binding | no binding | no binding | –
Signal transducer and activator of transcription 2 (STAT2) (from UniProt P52630 1-851) | binds | no binding | – | binds
